Data taken from the supplement of paper PMC4604168 (melanoma cell lines).
The list shows a part of the results. Repeats are few or missing, and single values can be far off.

What follows are compounds tested on MEL-HO (assay: cell count relative to DMSO control; melanoma cells; higher = more viable cells). Details: library dose: low library concentration; 72 h.
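Also: cell number obtained by counting DAPI-stained nuclei in high-throughput microscope images with image analysis software, screen run in 1,536-well plates.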

SMILES	cell count
Nc1nc(F)nc2c1ncn2[C@@H]1O[C@H](CO)[C@@H](O)[C@@H]1O [fludarabine] + CCN(CC)CCCCNc1ncc2cc(-c3cc(OC)cc(OC)c3)c(NC(=O)NC(C)(C)C)nc2n1 [PD173074] (first compound 0.2 µM, partner dose 0.1 µM)	102%
CC(=O)c1c(C)c2cnc(Nc3ccc(N4CCNCC4)cn3)nc2n(C2CCCC2)c1=O [palbociclib] + N#Cc1c(O)c2c(-c3ccc(-c4ccccc4O)cc3)csc2[nH]c1=O [A769662] (first compound 0.04 µM, partner dose 2 µM)	77%
CC(=O)O[C@@]12CO[C@@H]1C[C@H](O)[C@@]1(C)C(=O)[C@H](O)C3=C(C)[C@@H](OC(=O)[C@H](O)[C@@H](NC(=O)OC(C)(C)C)c4ccccc4)C[C@@](O)([C@@H](OC(=O)c4ccccc4)[C@H]21)C3(C)C [Docetaxel] + Oc1cc(-c2nc(-c3ccccc3)[nH]c2-c2ccncc2)ccc1Cl [L779450] (first compound 0.0001 µM, partner dose 0.2 µM)	47.8%
CC(=O)c1c(C)c2cnc(Nc3ccc(N4CCNCC4)cn3)nc2n(C2CCCC2)c1=O [palbociclib] + O=C(O)C(=O)Nc1sc2c(c1C(=O)O)CCNC2 [TCS401] (first compound 0.04 µM, partner dose 1.66667 µM)	80.7%
Nc1ncn([C@H]2C[C@H](O)[C@@H](CO)O2)c(=O)n1 [decitabine] + COc1cc(N2CCC(N3CCN(C)CC3)CC2)ccc1Nc1ncc(Cl)c(Nc2ccccc2S(=O)(=O)C(C)C)n1 [NVP-TAE684] (first compound 0.1 µM, partner dose 0.08 µM)	74.1%
CC(=O)c1c(C)c2cnc(Nc3ccc(N4CCNCC4)cn3)nc2n(C2CCCC2)c1=O [palbociclib] + CCCCCCCCCCCC1=C(O)C(=O)C=C(O)C1=O [Embelin] (first compound 0.04 µM, partner dose 1.2 µM)	93.6%
CC(=O)O[C@@]12CO[C@@H]1C[C@H](O)[C@@]1(C)C(=O)[C@H](O)C3=C(C)[C@@H](OC(=O)[C@H](O)[C@@H](NC(=O)OC(C)(C)C)c4ccccc4)C[C@@](O)([C@@H](OC(=O)c4ccccc4)[C@H]21)C3(C)C [Docetaxel] + O=C1NC(=O)/C(=C/c2ccc(-c3ccc(F)cc3O)o2)S1 [AS252424] (first compound 0.0001 µM, partner dose 1 µM)	63%
CC(=O)O[C@@]12CO[C@@H]1C[C@H](O)[C@@]1(C)C(=O)[C@H](O)C3=C(C)[C@@H](OC(=O)[C@H](O)[C@@H](NC(=O)OC(C)(C)C)c4ccccc4)C[C@@](O)([C@@H](OC(=O)c4ccccc4)[C@H]21)C3(C)C [Docetaxel] + O=c1cc(-c2cccc3c2Sc2ccccc2S3)oc(N2CCOCC2)c1 [KU55933] (first compound 0.0001 µM, partner dose 1 µM)	83.9%
Nc1nc(F)nc2c1ncn2[C@@H]1O[C@H](CO)[C@@H](O)[C@@H]1O [fludarabine] + O=C(Nc1ccccc1)c1cc([N+](=O)[O-])ccc1Cl [GW9662] (first compound 0.2 µM, partner dose 2 µM)	96%
Nc1ncn([C@H]2C[C@H](O)[C@@H](CO)O2)c(=O)n1 [decitabine] + COc1ccc2c(c1)CCC1C2CCC2(C)C(NCCCCCCN3C(=O)C=CC3=O)CCC12 [U73122] (first compound 0.1 µM, partner dose 0.4 µM)	81.9%
Nc1ccn([C@@H]2O[C@H](CO)[C@@H](O)C2(F)F)c(=O)n1 [gemcitabine] + CCCCCCCCCCCC1=C(O)C(=O)C=C(O)C1=O [Embelin] (first compound 0.0004 µM, partner dose 1.2 µM)	94.7%
Nc1ccn([C@@H]2O[C@H](CO)[C@@H](O)C2(F)F)c(=O)n1 [gemcitabine] + COC(=O)c1sccc1S(=O)(=O)Nc1ccc(Nc2ccccc2)cc1OC [GSK0660] (first compound 0.0004 µM, partner dose 1 µM)	98.9%
